# Reference: patent publication US20250295648A1 (priority 2024, published 2025)
# Values joined by “and” are separate entries in the source; they are usually repeats but may differ in a detail not shown here. Identical values can stand only once.
# Tested on: patients with moderate to severe L-DOPA-induced dyskinesia (LID) in Parkinson's disease
# Experiment: Phase 2a study: adverse events (frequency, intensity, seriousness, causality), tolerability
compound,measurement,setting,value
"Cc1ccc(CNCC2(F)CCN(C(=O)c3ccc(F)c(Cl)c3)CC2)nc1 [NLX-112, (3-chloro-4-fluoro-phenyl)-[4-fluoro-4-{[(5-methyl-pyridin-2-ylmethyl)-amino]-methyl}piperidin-1-yl]methanone]",AE severity Death: events m,"FAS, whole study, N=18",0
same,AE severity Death: subjects n,"FAS, whole study, N=18",0
same,Any AE leading to death: events m,"FAS, whole study, N=18",0
same,Any AE leading to death: subjects n,"FAS, whole study, N=18",0
same,COVID-19: events m,"FAS, whole study, N=18",0
same,COVID-19: subjects n,"FAS, whole study, N=18",0
same,Cardiac disorders (SOC): events m,"FAS, whole study, N=18",1
same,Cardiac disorders (SOC): subjects %,"FAS, whole study, N=18",(5.6%)
same,Cardiac disorders (SOC): subjects n,"FAS, whole study, N=18",1
same,Cataract operation: events m,"FAS, whole study, N=18",2
same,Cataract operation: subjects %,"FAS, whole study, N=18",(5.6%)
same,Cataract operation: subjects n,"FAS, whole study, N=18",1
same,Condition aggravated: events m,"FAS, whole study, N=18",1
same,Condition aggravated: subjects %,"FAS, whole study, N=18",(5.6%)
same,Infections and infestations (SOC): events m,"FAS, whole study, N=18",5
same,Infections and infestations (SOC): subjects %,"FAS, whole study, N=18",(17%)
same,Infections and infestations (SOC): subjects n,"FAS, whole study, N=18",3
same,Inflammatory marker increased: events m,"FAS, whole study, N=18",1
same,Inflammatory marker increased: subjects %,"FAS, whole study, N=18",(5.6%)
same,Inflammatory marker increased: subjects n,"FAS, whole study, N=18",1
same,Influenza: events m,"FAS, whole study, N=18",1
same,Influenza: subjects %,"FAS, whole study, N=18",(5.6%)
same,Influenza: subjects n,"FAS, whole study, N=18",1
same,"Injury, poisoning and procedural complications (SOC): events m","FAS, whole study, N=18",6
same,"Injury, poisoning and procedural complications (SOC): subjects %","FAS, whole study, N=18",(17%)
same,Respiratory tract infection: events m,"FAS, whole study, N=18",1
same,Respiratory tract infection: subjects %,"FAS, whole study, N=18",(5.6%)
same,Respiratory tract infection: subjects n,"FAS, whole study, N=18",1
same,SAE Persistent or Significant Disability/Incapacity: events m,"FAS, whole study, N=18",0
same,SAE Persistent or Significant Disability/Incapacity: subjects n,"FAS, whole study, N=18",0
same,Urinary tract infection: events m,"FAS, whole study, N=18",2
same,Urinary tract infection: subjects %,"FAS, whole study, N=18",(5.6%)
same,Urinary tract infection: subjects n,"FAS, whole study, N=18",1
same,AE severity Death: events m,"down-titration (ND), N=15",0
same,AE severity Death: subjects n,"down-titration (ND), N=15",0
same,Any AE leading to death: events m,"down-titration (ND), N=15",0
same,Any AE leading to death: subjects n,"down-titration (ND), N=15",0
same,SAE Persistent or Significant Disability/Incapacity (PSD/I): events m,"down-titration (ND), N=15",0
same,SAE Persistent or Significant Disability/Incapacity (PSD/I): subjects n,"down-titration (ND), N=15",0
same,AE action taken Drug Interrupted: events m,in vivo,0
same,AE action taken Drug Interrupted: subjects n,in vivo,0
same,AE severity Life-Threatening: events m,in vivo,0
same,AE severity Life-Threatening: subjects n,in vivo,0
same,AE severity Severe: events m,in vivo,0
same,AE severity Severe: subjects n,in vivo,0
same,Alopecia: events m,in vivo,0
same,Alopecia: subjects n,in vivo,0
same,Any AE leading to WFS (withdrawal from study): subjects %,in vivo,(5.6) %
same,Any AE leading to withdrawal from study: events m,in vivo,3
same,Any AE leading to withdrawal from study: subjects %,in vivo,(5.6%)
same,Any AE leading to withdrawal from study: subjects n,in vivo,1
same,Any SAE: events m,in vivo,0
same,Apathy: events m,in vivo,1
same,Apathy: subjects %,in vivo,(5.6%)
same,Apathy: subjects n,in vivo,1
same,Arthralgia: events m,in vivo,1
same,Arthralgia: subjects %,in vivo,(5.6%)
same,Arthralgia: subjects n,in vivo,1
same,Back pain: events m,in vivo,2
same,Back pain: subjects n,in vivo,2
same,Binocular eye movement disorder: events m,in vivo,1
same,Binocular eye movement disorder: subjects %,in vivo,(5.6%)
same,Binocular eye movement disorder: subjects n,in vivo,1
same,Condition aggravated: subjects n,in vivo,1
same,Depression: events m,in vivo,0
same,Depression: subjects n,in vivo,0
same,Diarrhoea: events m,in vivo,1
same,Diarrhoea: subjects %,in vivo,(5.6%)
same,Diarrhoea: subjects n,in vivo,1
same,Dissociation: events m,in vivo,2
same,Dissociation: subjects n,in vivo,2
same,Dizziness: events m,in vivo,2
same,Dizziness: subjects n,in vivo,2
same,"Dizziness: subjects, %",in vivo,(11) %
same,Dry eye: events m,in vivo,0
same,Dry eye: subjects n,in vivo,0
same,Dry mouth: events m,in vivo,1
same,Dry mouth: subjects %,in vivo,(5.6%)
same,Dry mouth: subjects n,in vivo,1
same,Dyskinesia: events m,in vivo,2
same,Dyskinesia: subjects %,in vivo,(11%)
same,Dyskinesia: subjects n,in vivo,2
same,"Dyskinesia: subjects, %",in vivo,(11) %
same,Ear and labyrinth disorders (SOC): events m,in vivo,3
same,Ear and labyrinth disorders (SOC): subjects %,in vivo,(11%)
same,Ear and labyrinth disorders (SOC): subjects n,in vivo,2
same,Erythema of eyelid: events m,in vivo,1
same,Erythema of eyelid: subjects %,in vivo,(5.6%)
same,Erythema of eyelid: subjects n,in vivo,1
same,Eye disorders (SOC): events m,in vivo,3
same,Eye disorders (SOC): subjects %,in vivo,(11%)
same,Eye disorders (SOC): subjects n,in vivo,2
same,Eye pain: events m,in vivo,0
same,Eye pain: subjects n,in vivo,0
same,Fall: events m,in vivo,3
same,Fall: subjects n,in vivo,2
same,Fatigue: events m,in vivo,2
same,Fatigue: subjects n,in vivo,2
same,Gastritis: events m,in vivo,1
same,Gastritis: subjects %,in vivo,(5.6%)
same,Gastritis: subjects n,in vivo,1
same,Gastrointestinal disorders (SOC): events m,in vivo,10
same,Gastrointestinal disorders (SOC): subjects %,in vivo,(39%)
same,Gastrointestinal disorders (SOC): subjects n,in vivo,7
same,General disorders and administration site conditions (SOC): events m,in vivo,3
same,General disorders and administration site conditions (SOC): subjects %,in vivo,(17%)
same,General disorders and administration site conditions (SOC): subjects n,in vivo,3
same,Hallucination: events m,in vivo,1
same,Hallucination: subjects %,in vivo,(5.6%)
same,Hallucination: subjects n,in vivo,1
same,Headache: events m,in vivo,4
same,"Headache: events, m",in vivo,2 and 1
same,Headache: subjects %,in vivo,(17%)
same,Headache: subjects n,in vivo,3
same,Hyperglycaemia: events m,in vivo,1
same,Hyperglycaemia: subjects %,in vivo,(5.6%)
same,Hyperglycaemia: subjects n,in vivo,1
same,Hypertension: events m,in vivo,0
same,Hypertension: subjects n,in vivo,0
same,Illusion: events m,in vivo,0
same,Illusion: subjects n,in vivo,0
same,Incorrect dose administered: events m,in vivo,1
same,Incorrect dose administered: subjects %,in vivo,(5.6%)
same,Incorrect dose administered: subjects n,in vivo,1
same,"Injury, poisoning and procedural complications (SOC): subjects n",in vivo,3
same,Insomnia: events m,in vivo,2
same,Insomnia: subjects n,in vivo,2
same,Investigations (SOC): events m,in vivo,1
same,Investigations (SOC): subjects %,in vivo,(5.6%)
same,Investigations (SOC): subjects n,in vivo,1
same,Irritability: events m,in vivo,0
same,Irritability: subjects n,in vivo,0
same,Lip injury: events m,in vivo,1
same,Lip injury: subjects %,in vivo,(5.6%)
same,Lip injury: subjects n,in vivo,1
same,Metabolism and nutrition disorders (SOC): events m,in vivo,1
same,Metabolism and nutrition disorders (SOC): subjects %,in vivo,(5.6%)
same,Metabolism and nutrition disorders (SOC): subjects n,in vivo,1
same,Micturition urgency: events m,in vivo,1
same,Micturition urgency: subjects %,in vivo,(5.6%)
